According to paper PMC12040169 (PLOS Biology, 2025):
The list shows a part of the results.

The compounds below were run on T1, C. trachomatis L2/434/Bu expressing GFP (CTL2-GFP). Conditions: total inclusion area; 28.5 h, 10 µM; inhibitor.
T1 construct: L2/434/Bu GFP intracellular growth in HeLa cells
Parameters: species or system HeLa; C. trachomatis total inclusion area by high-content imaging, normalised to DMSO
How it was run: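 High-content images of fixed, Hoechst-stained infected cultures supply inclusion area and count (growth) plus nuclei number (viability), complementing bulk GFP/resorufin fluorescence. MIC determination is unchanged from the primary assay.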

Compound | % of control remaining
CN1C(=O)CC2(C1=O)C(=O)N(Cc1nc(-c3ccc(Cl)cc3)no1)c1ccc(F)cc12 (stereo not drawn) [CBK075442] | 96.1998
NS(=O)(=O)c1ccc(NC(=O)CCCOc2ccc(Cl)cc2Cl)cc1 [CBK261536] | 117.063
O=C(CSc1nc(=O)cc(O)[nH]1)N1CCc2ccccc21 [CBK269350] | 112.959
c1ccc(CCCN2CCN(Cc3cccc4ccccc34)CC2)cc1 [CBK264237] | 126.011
COc1ccc(F)c(CN(CC(C)(C)CN)C(=O)Nc2c(F)cccc2F)c1 [CBK002405C] | 4.727
Cc1cccc(CN2CCC(NC(=O)Cn3cnnn3)CC2)c1 [CBK305649] | 130.618
CN1CCOc2cc(S(=O)(=O)Nc3cccnc3N3CCOCC3)ccc21 [CBK062299] | 24.2044
c1ccc2c(c1)CCCN2c1ncnc2n[nH]cc12 [CBK287886] | 56.6456
Cc1nc2ccc(C(=O)O)cc2c2c1CC(CN)O2 (stereo not drawn) [CBK286974] | 135.982
O=C(Nc1ccccc1)c1cccc(S(=O)(=O)NCc2ccncc2)c1 [CBK269980] | 95.2531
CN(C)c1ccc(-c2cnc3[nH]c(=O)n(C4CCCC4)c3n2)cc1 [CBK064964] | 86.1012
C[C@H]1[C@@H]2[C@@H](O)C([C@H](C)C(=O)N3CCCCC3)CC[C@@]2(C)CC[C@@H]1NC(=O)c1cnccn1 (stereo partly drawn) [CBK289448] | 83.8308
C[C@H](NC(=O)N1CCC(c2nc(-c3ccccc3)c3ccccn23)CC1)c1ccccc1 [CBK047086] | 94.2819
COc1ccc(-c2cc(N3CCCN(C)CC3)n3nccc3n2)cc1 [CBK037244] | 94.1064
Cc1ncc([N+](=O)[O-])n1CC(=O)Nc1ccccc1F [CBK269335] | 94.9959
O=C(COc1ccc(N2CC(C(=O)O)CC2=O)cc1)Nc1cccc(C(F)(F)F)c1 (stereo not drawn) [CBK268096] | 103.316
O=C(Cn1nnc2ccccc21)c1ccc2c(c1)CCN2S(=O)(=O)c1ccccc1 [CBK286464] | 62.6452
Cc1oc(NC(=O)CN2CCN(c3cccc(Cl)c3)CC2)c(C#N)c1C [CBK305906] | 49.1931
C/C(CC(=O)Nc1ccccc1C(N)=O)=N\NC(=O)c1ccoc1C [CBK262957] | 99.2177
Cc1cc(-c2cc(C)[nH]n2)[nH]n1 [CBK262079] | 106.079
CCN1/C(=C/C(=C/c2sc3ccccc3[n+]2CCCS(=O)(=O)[O-])OC)Sc2ccccc21 [CBK278203] | 80.4959
